Data on 172 sequences can be found in PMC10668032.

The list shows a part of the results. At the low end of the ranking the order means little.

The experiment has as its target SIX1-Q177R homeodomain (UniProt Q15475). Description: universal protein binding microarray. Particulars: Universal all-10-mer PBM (8x60K, AMADID 030236), 300 nM GST-tagged protein, Alexa Fluor 488 anti-GST; buffer, salt, pH and temperature not stated; high values mean tight binding; most listed sequences are background and not binding sites; double strand, one strand shown.
In the case of TCCTCTAA, the binding signal was -0.0751 E-score.

Take CCGTAGAG: the binding signal was -0.108 E-score.

For the sequence CCCCGTGC, the binding signal was 0.244 E-score.

In the case of CTCTCCCC, the binding signal is -0.0887 E-score.

Turning to AGGTCTAT, the binding signal is -0.171 E-score.

As for ACCTCGTA, the binding signal came out at 0.0135 E-score.

ACTTTCTG: the binding signal is -0.0154 E-score.

In the case of ATAGGTCA, the binding signal was -0.0545 E-score.

For the sequence CCCCTGGC, the binding signal was determined as 0.129 E-score.

As for CTTGCAGA, the binding signal is -0.0336 E-score.

On to CCGGAGCC, for which the binding signal amounted to 0.0922 E-score.

With CAGGATAA, the binding signal is 0.0465 E-score.

Take CGTAAACG: the binding signal amounted to 0.0318 E-score.

As for TCCCGGGA, the binding signal worked out at 0.05 E-score.

With AAACTTCA, the binding signal was -0.133 E-score.

As for GAAATTAC, the binding signal was -0.193 E-score.

For CGTCGGTA, the binding signal was -0.132 E-score.

For AAGATACG, the binding signal was -0.109 E-score.

Regarding GGAAGTTA, the binding signal was -0.105 E-score.

For the sequence GGCAACCA, the binding signal is -0.0707 E-score.

In the case of AAGGTCGC, the binding signal is -0.12 E-score.

On to AGTAAATG, for which the binding signal is -0.115 E-score.

As for ATCGGCTC, the binding signal was -0.0341 E-score.

Turning to AGATCCAA, the binding signal is -0.136 E-score.

On to AAAACTTT, for which the binding signal came to 0.0384 E-score.

As for GTTTATGA, the binding signal was -0.235 E-score.

In the case of GAAGGGGC, the binding signal stood at 0.0249 E-score.

With AGAATTTC, the binding signal is -0.193 E-score.

On to TAGAGCAA, for which the binding signal was -0.256 E-score.

Regarding ATACAAAT, the binding signal is -0.0329 E-score.

For ATTGAACA, the binding signal turned out to be 0.0215 E-score.

Regarding CCGCAGCC, the binding signal came out at 0.0121 E-score.

Take CGATGTGC: the binding signal was -0.15 E-score.

CGGGCAAA: the binding signal is -0.0934 E-score.

As to GGGCAATA, the binding signal is -0.108 E-score.

As to GCTTGGGA, the binding signal is -0.0871 E-score.

As for CAGGCTAG, the binding signal was -0.0295 E-score.

As to AACTCGGT, the binding signal stood at 0.0864 E-score.

For CCCAGTGA, the binding signal is -0.0336 E-score.

In the case of AATTCCGA, the binding signal is -0.00637 E-score.

Take AACTTATT: the binding signal is -0.116 E-score.

As for AAGGTGAG, the binding signal is -0.118 E-score.

Consider ATCTAGCG, for which the binding signal worked out at 0.00805 E-score.

For CTAAATAG, the binding signal was -0.0533 E-score.

As for CCGTAGCC, the binding signal was -0.0577 E-score.

For CCCCCGTC, the binding signal was determined as 0.112 E-score.

As for AACCATAA, the binding signal was -0.118 E-score.

For the sequence AGTACGAA, the binding signal was -0.168 E-score.

Take ATGTGGGA: the binding signal is -0.104 E-score.

In the case of AGCGTAGA, the binding signal is -0.024 E-score.

Regarding TGCAGACA, the binding signal was 0.167 E-score.

For TCCTTAAA, the binding signal is -0.0969 E-score.

With CCTAAGTC, the binding signal was -0.147 E-score.

CAACAGTC: the binding signal was -0.29 E-score.

Consider GCTATAAA, for which the binding signal was -0.197 E-score.

On to AAGTTCCC, for which the binding signal was -0.214 E-score.

With CTCGGTTA, the binding signal was -0.161 E-score.

Consider CCTACGGA, for which the binding signal is -0.24 E-score.

Regarding GTGCGATA, the binding signal turned out to be 0.119 E-score.

As for CCTGCGAG, the binding signal came out at 0.00291 E-score.

Regarding CTAATTCA, the binding signal is -0.261 E-score.

In the case of GGTTGTGA, the binding signal is -0.0383 E-score.

Take AATAAAGG: the binding signal is -0.271 E-score.

Turning to AGGCTCCA, the binding signal was -0.24 E-score.

Regarding AAGATAAA, the binding signal was -0.121 E-score.

Regarding AAAATTAT, the binding signal is -0.109 E-score.

As to CCACTTGC, the binding signal was determined as 0.163 E-score.

As to TAGAGATA, the binding signal was -0.125 E-score.

On to CAGTTCCA, for which the binding signal is -0.0209 E-score.

As to CAAATCCC, the binding signal was -0.117 E-score.

For the sequence GGCATTCA, the binding signal was -0.0852 E-score.

As for ACCAAGAT, the binding signal was determined as 0.0978 E-score.

Consider CACCAGGA, for which the binding signal stood at 0.25 E-score.

Consider AACCAGAC, for which the binding signal is -0.0596 E-score.

Consider ACCTGGCG, for which the binding signal was 0.0885 E-score.

In the case of CTATTAAC, the binding signal was determined as 0.196 E-score.

Regarding GAGGCCCC, the binding signal is -0.234 E-score.

For AATGCGAT, the binding signal was -0.153 E-score.

For GTACTGGA, the binding signal is -0.00455 E-score.

Consider ACTACTAC, for which the binding signal is 0.0499 E-score.

On to AAGTACAA, for which the binding signal is -0.224 E-score.

CTCGGGAC: the binding signal was -0.112 E-score.

As for CATACTCC, the binding signal was 0.212 E-score.

Consider GCTCCCCC, for which the binding signal was -0.0751 E-score.

Consider AAACCATA, for which the binding signal is -0.00435 E-score.

On to CAGACTGG, for which the binding signal is -0.112 E-score.

Turning to TAACTTAA, the binding signal was -0.0624 E-score.

For the sequence TTAGGCAA, the binding signal is -0.241 E-score.

In the case of AGCCACGA, the binding signal was -0.134 E-score.

In the case of CTTCCTTC, the binding signal is -0.152 E-score.

Regarding AATGTGCG, the binding signal amounted to 0.108 E-score.

Turning to GCAAATCC, the binding signal is -0.161 E-score.

In the case of TGCTAAAA, the binding signal was -0.00992 E-score.

With AGCTCTCC, the binding signal was -0.322 E-score.

AGGGCCCA: the binding signal was -0.208 E-score.

On to TAATTCCA, for which the binding signal was 0.0335 E-score.

Consider AATTCCAA, for which the binding signal was -0.103 E-score.

Regarding CATGTCCA, the binding signal is -0.138 E-score.

ATGTAGGA: the binding signal was -0.163 E-score.

With AACGCCTT, the binding signal was -0.258 E-score.

Consider AGATACAA, for which the binding signal is -0.197 E-score.

Take AGGGACAC: the binding signal was found to be 0.402 E-score.

Take AGGAATTG: the binding signal was -0.0536 E-score.

In the case of CTTACAGC, the binding signal is -0.163 E-score.

Regarding AAAGTTCG, the binding signal was -0.0652 E-score.

Regarding ATTCTAGA, the binding signal was -0.133 E-score.

Turning to AATGTAAT, the binding signal was -0.201 E-score.

For the sequence ATGGTTAG, the binding signal was -0.11 E-score.

Regarding CTTTAACC, the binding signal is -0.0731 E-score.

On to CCATATTC, for which the binding signal was -0.0645 E-score.

Regarding CGCCTTAA, the binding signal was determined as 0.000255 E-score.

For the sequence TACTTCAA, the binding signal was -0.024 E-score.

For the sequence ACGAGTTA, the binding signal was found to be 0.205 E-score.

For ACAGGAGC, the binding signal was -0.182 E-score.

ACTCCGTG: the binding signal worked out at 0.253 E-score.

For CATGCGGA, the binding signal is -0.0935 E-score.

Consider CCCCTCGG, for which the binding signal stood at 0.126 E-score.

Consider AAGTGATG, for which the binding signal was -0.0838 E-score.

As for CAGACAAA, the binding signal is -0.104 E-score.

Regarding ATCTGACG, the binding signal is 0.089 E-score.

Take AAGCAATC: the binding signal is -0.0448 E-score.

As to CTTCTCGA, the binding signal was -0.223 E-score.

As to CGGTTGGC, the binding signal amounted to 0.0284 E-score.

Turning to CCATCAAG, the binding signal was -0.0281 E-score.

As to CCCCAACG, the binding signal is 0.0793 E-score.

As to AGGAGCAT, the binding signal is -0.134 E-score.

As to CGGTTTAC, the binding signal turned out to be 0.0979 E-score.

GAGATCGC: the binding signal was -0.083 E-score.

Regarding CTATGGAC, the binding signal was -0.0343 E-score.

On to CCACACGA, for which the binding signal was found to be 0.234 E-score.

As for CGGGATTA, the binding signal is 0.051 E-score.

GGATACCC: the binding signal stood at 0.403 E-score.

As for CGGATAAC, the binding signal came to 0.213 E-score.

For the sequence CTTCGCTC, the binding signal is -0.126 E-score.

Turning to CGAGCACC, the binding signal came out at 0.224 E-score.

As for ACAGTAAG, the binding signal is -0.0678 E-score.

Take CGTACTTC: the binding signal is -0.0533 E-score.

On to CATATGGG, for which the binding signal is -0.094 E-score.

As to CAGGTTCG, the binding signal is -0.0744 E-score.

For GGGCAAAC, the binding signal was -0.161 E-score.

Take AATGTACG: the binding signal is -0.108 E-score.

As to CCAGTAAA, the binding signal is -0.0791 E-score.

Regarding TTAAATAA, the binding signal is -0.0852 E-score.

ACTGAGCC: the binding signal is -0.0884 E-score.

As to CCGTTCGA, the binding signal was found to be 0.137 E-score.

For AGGATCGG, the binding signal was -0.0695 E-score.

Regarding CCATATAG, the binding signal stood at 0.0347 E-score.

For the sequence CGGAACCG, the binding signal is -0.13 E-score.

Turning to ATAACCTA, the binding signal is -0.144 E-score.

In the case of GAATTGGC, the binding signal was -0.166 E-score.

For AGGTATAA, the binding signal stood at 0.17 E-score.

Take GACAGACA: the binding signal came out at 0.035 E-score.

As for GAGTAACA, the binding signal came out at 0.24 E-score.

Consider TCCAGAGA, for which the binding signal is -0.236 E-score.

Consider TCGTCGCA, for which the binding signal is -0.203 E-score.

Consider CCATGGAC, for which the binding signal was 0.138 E-score.

As to AACACTTG, the binding signal worked out at 0.336 E-score.

As to AATCCTGG, the binding signal is -0.11 E-score.

Take ACTGGTCT: the binding signal was -0.0434 E-score.

Take ATCTAAGG: the binding signal is -0.104 E-score.

With ATTAAAGC, the binding signal was -0.154 E-score.

For the sequence TAGGGTGA, the binding signal was determined as 0.0706 E-score.

Consider ATTATTTG, for which the binding signal is -0.136 E-score.

For CCCCTAGG, the binding signal came to 0.0554 E-score.

With CTGTAGCA, the binding signal is -0.203 E-score.

For the sequence ACGAGAAT, the binding signal is -0.168 E-score.

ACGTGCCT: the binding signal is -0.14 E-score.

Consider AAAGTCTG, for which the binding signal was -0.378 E-score.

With CGATTCCC, the binding signal stood at 0.00582 E-score.

Consider AATGTGGT, for which the binding signal was 0.0523 E-score.

GCCAAGAC: the binding signal was 0.0011 E-score.

In the case of CTGTGACA, the binding signal is 0.21 E-score.
